{"source": "the supplement of paper PMC4604168 (melanoma cell lines)", "note": "Some of the results follow. Repeats are few or missing, and single values can be far off.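 Note: cells treated in 1,536-well plates, then fixed and DAPI-stained, with nuclei counted from automated high-throughput microscope images.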"}
{"test_system": "MZ2-MEL", "test": "cell count relative to DMSO control; melanoma cells; higher = more viable cells", "conditions": "library dose: standard library concentration; 72 h", "units": {"cell count": "%"}}
{"smiles": "CCCCCCCCc1ccc(CCC(N)(CO)CO)cc1", "note": "[fingolimod] + C[C@@H]1CCN(C(=O)CC#N)C[C@@H]1N(C)c1ncnc2[nH]ccc12 [CP690550] (first compound 10 µM, partner dose 5 µM)", "cell count": 84.4}
{"smiles": "COc1cc2c(Oc3ccc4[nH]c(C)cc4c3F)ncnc2cc1OCCCN1CCCC1", "note": "[cediranib] + CCN(CC)CCCCNc1ncc2cc(-c3cc(OC)cc(OC)c3)c(NC(=O)NC(C)(C)C)nc2n1 [PD173074] (first compound 2 µM, partner dose 0.5 µM)", "cell count": 113}
{"smiles": "NC(=O)c1ccc(N(C(N)=O)c2c(F)cccc2F)nc1-c1ccc(F)cc1F", "note": "+ CN(C)S(=O)(=O)c1ccc2c(c1)/C(=C/c1cc3c([nH]1)CCCC3)C(=O)N2 [SU6656] (first compound 2 µM, partner dose 2 µM)", "cell count": 95.6}
{"smiles": "CCCCCCCCc1ccc(CCC(N)(CO)CO)cc1", "note": "[fingolimod] + COCC[n+]1c2c(n(Cc3cnccn3)c1C)C(=O)c1ccccc1C2=O [YM155] (first compound 10 µM, partner dose 0.002 µM)", "cell count": 1.29}
{"smiles": "CC(C)(C)c1cnc(CSc2cnc(NC(=O)C3CCNCC3)s2)o1", "note": "+ COc1ccc2c(c1)CCC1C2CCC2(C)C(NCCCCCCN3C(=O)C=CC3=O)CCC12 [U73122] (first compound 0.05 µM, partner dose 2 µM)", "cell count": 108}
{"smiles": "CC(C)(C)c1cnc(CSc2cnc(NC(=O)C3CCNCC3)s2)o1", "note": "+ COc1ccc(COc2ccc(Cc3cnc(N)nc3N)cc2OC)cc1 [GW2580] (first compound 0.05 µM, partner dose 5 µM)", "cell count": 96.9}
